{"source": "PubChem BioAssay AID624202", "about": "(National Center for Advancing Translational Sciences (NCATS), 2012)", "note": "The whole screen tested about 380,000 compounds, of which about 4,000 (1.1%) were called active. This list was built around the results that the source calls inconclusive (neither active nor inactive); the mix of calls is not that of the screen. Calls come from the whole dose curve; as a rule, active = well fitted activation curve with a large enough effect; inconclusive = small, poorly fitted or top-dose-only effect; inactive = no such curve, though single readings can be large or run the other way. A potency beside an inconclusive call is a rough fit, not a confirmed value. Potency is the fitted concentration of half-maximal effect; tags give direction and shape of the fitted curve."}
{"test": "qHTS Assay to Identify Small Molecule Activators of BRCA1 Expression; note: nearly all actives have a fitted effect of over 80% in size", "settings": "MCF7-BRCA1-FFLuc reporter, luminescence, 48 h; activation: at 46.1 µM (top of the series), scaled: vehicle 0%, 10 µM genistein 100% unless noted", "how_it_was_run": "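First, MCF7-BRCA1-FFLuc cells (2000/well) attach for 2 h; next, compounds are pin-added and incubated 48 h at 37 °C; finally, luciferase reagent is added and luminescence read after 15 min.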"}
{"smiles": "CC(=O)Nc1cccc(OCc2ccc([N+](=O)[O-])cc2)c1", "Potency": "active: 11.2 µM"}
{"smiles": "CC(C)CCNC(=O)C(=O)Nc1ccccc1", "Potency": "active: 8.91 µM"}
{"smiles": "COc1ccccc1N1CCN(C(=O)Cn2cnc3onc(-c4ccc(F)cc4)c3c2=O)CC1", "Potency": "inactive"}
{"smiles": "Brc1ccccc1OCCCn1cnc2ccccc21", "Potency": "active: 11.2 µM"}
{"smiles": "CN(C)CCCN(C(=O)c1cc(-c2cccs2)nc2ccccc12)c1nc2c(F)cccc2s1", "Potency": "inactive"}
{"smiles": "Oc1ccc(-c2cn3ccccc3n2)cc1", "Potency": "inconclusive: 1.26 µM [activator, full curve, poor fit]"}
{"smiles": "Cc1ccc(S(=O)(=O)NCc2ccccc2)cc1C(=O)N1CCN(S(=O)(=O)c2ccccc2F)CC1", "Potency": "inactive"}
{"smiles": "Cc1ccc2c(c1)C(=O)C(=O)N2Cc1ccc(Cl)cc1", "Potency": "inactive"}
{"smiles": "C(=C\\c1nc2ccccc2o1)/c1ccc2c(c1)OCO2", "activation": "inconclusive: -0.779% [activator]"}
{"smiles": "O=C(Nc1nnc(-c2ccncc2)s1)Nc1ccccc1F", "Potency": "inconclusive: 2.51 µM [activator, partial curve, poor fit]"}
{"smiles": "Cc1c(O)ccc(C(=O)COc2ccc(F)cc2)c1O", "Potency": "inconclusive: 2.82 µM [activator, full curve, poor fit]"}
{"smiles": "Oc1ccc(N=Nc2ccccc2)cc1", "Potency": "active: 8.91 µM"}
{"smiles": "O=C(Nc1ccc2oc(-c3ccccc3F)nc2c1)c1ncn[nH]1", "Potency": "inconclusive: 1.26 µM [activator, full curve, poor fit]"}
{"smiles": "C/C(=N\\NC(=O)c1c(Cl)cnn1C)c1cccc(NC(=O)c2ccc(C)cc2)c1", "Potency": "active: 6.31 µM"}
{"smiles": "COc1ccc(-c2cc(=O)c3cc(C)ccc3[nH]2)cc1", "Potency": "inconclusive: 3.98 µM [activator, full curve, poor fit]"}
{"smiles": "O=Cc1cccn1Cc1ccccc1[N+](=O)[O-]", "activation": "inconclusive: 101% [activator]"}
{"smiles": "Cc1nnc(SCc2nc(N)nc(Nc3ccccc3)n2)s1", "Potency": "inconclusive: 15.8 µM [activator, partial curve, poor fit]"}
{"smiles": "Nc1ccc(-c2cnc3ccccc3n2)cc1", "Potency": "inconclusive: 0.501 µM [activator, full curve, poor fit]"}
{"smiles": "CCOCCCNc1ccc(-c2ccccc2)nn1", "Potency": "active: 2.82 µM"}
{"smiles": "Brc1ccc(/C=C/C=N/Nc2nc3ccccc3s2)cc1", "Potency": "active: 8.91 µM"}
{"smiles": "CCN(CC)S(=O)(=O)c1ccc(-c2cn3ccc(C)cc3n2)cc1", "Potency": "active: 3.55 µM"}
{"smiles": "CCOc1ccccc1NC(=O)C(=O)N/N=C/c1ccc([N+](=O)[O-])cc1", "Potency": "inactive"}
{"smiles": "CC(=O)Nc1ccc(-c2ccnc3c2CC(C(=O)NCC2CCOCC2)O3)cc1", "note": "(stereo not given)", "Potency": "inactive"}
{"smiles": "Cc1nn(-c2ccccc2)c(C)c1/C=N/O", "Potency": "inactive"}
{"smiles": "CC(=O)c1ccc(NC(=S)Nc2ccc3cn[nH]c3c2)cc1", "Potency": "active: 6.31 µM"}
{"smiles": "O=C(CN1CCN(S(=O)(=O)c2ccc(Br)cc2)CC1)N/N=C/c1ccc(Cl)c([N+](=O)[O-])c1", "Potency": "inactive"}
{"smiles": "COc1ccc(/C=N\\Nc2ccccn2)c(OC)c1", "Potency": "inconclusive: 3.98 µM [activator, full curve, poor fit]"}
{"smiles": "CCCCn1cnc2c(cnn2-c2ccc(F)cc2)c1=O", "Potency": "inconclusive: 35.5 µM [activator, single point]"}
{"smiles": "CC(NCc1ccc(OCC(N)=O)cc1)C12CC3CC(CC(C3)C1)C2", "note": "(stereo not given)", "Potency": "inactive"}
{"smiles": "Cc1ccc(OCC(=O)Nc2ccc3c(c2)OCO3)c([N+](=O)[O-])n1", "Potency": "inconclusive: 15.8 µM [activator, partial curve, poor fit]"}
{"smiles": "COCCn1c(C)cc(C(=O)CN2C(=O)NC3(CCCCCC3)C2=O)c1C", "Potency": "active: 5.62 µM"}
{"smiles": "NNC(=O)CNC(=O)c1cccc(Br)c1", "Potency": "inactive"}
{"smiles": "COc1cc2nc(Cl)nc(NC3CC3)c2cc1OC", "Potency": "inactive"}
{"smiles": "COc1cc2sc3cc(NCc4ccc(C)o4)ccc3c(=O)c2cc1OC", "Potency": "inconclusive: 10 µM [activator, partial curve, poor fit]"}
{"smiles": "Cc1ccc(NC(=O)NC2CCCCCCC2)cc1C", "Potency": "inconclusive: 2 µM [activator, partial curve, poor fit]"}
{"smiles": "CCn1cnc2c(Nc3cccc(Cl)c3)nc(C#N)nc21", "Potency": "inconclusive: 8.91 µM [activator, partial curve, poor fit]"}
{"smiles": "O=C(NC1CCCC1)c1cc(-c2ccc(Cl)cc2)on1", "Potency": "inconclusive: 2.24 µM [activator, full curve, poor fit]"}
{"smiles": "O=[N+]([O-])c1ccc(NCCCNS(=O)(=O)c2ccc(Cl)cc2)c(Cl)c1", "Potency": "inactive"}
{"smiles": "COc1ccc(CNC(=O)c2ccc(C(C)(C)C)cc2)cc1", "Potency": "active: 3.55 µM"}
{"smiles": "c1ccc(-n2cnc3cc(NCc4ccccn4)ccc32)cc1", "Potency": "inconclusive: 2 µM [activator, full curve, poor fit]"}
{"smiles": "Cc1ccccc1-c1nn2c(=O)cc(CN3CCN(S(=O)(=O)c4ccc(Cl)cc4)CC3)nc2s1", "Potency": "inactive"}
{"smiles": "COc1nc(C)nc2c1sc1nc3c(cc12)COC(C)(C)C3", "Potency": "inconclusive: 1.78 µM [activator, full curve, poor fit]"}
{"smiles": "COC(=O)CN(C)C(=O)c1ccc2nc(Cc3cccc(Cl)c3)oc2c1", "Potency": "inconclusive: 11.2 µM [activator, partial curve, poor fit]"}
{"smiles": "O=C(CSCc1ccco1)c1cccs1", "Potency": "inconclusive: 12.6 µM [activator, partial curve, poor fit]"}
{"smiles": "CC(=O)c1c(C)[nH]c(C(=O)NCCc2ccccc2)c1C", "Potency": "inconclusive: 0.631 µM [activator, full curve, poor fit]"}
{"smiles": "Cc1nc(Cl)cc(N/N=C/c2ccc(O)cc2)n1", "Potency": "inconclusive: 25.1 µM [activator, single point]"}
{"smiles": "Cc1cc(C)c(S(=O)(=O)/N=C2/C=C(SCC(=O)O)C(=O)c3ccccc32)cc1C", "Potency": "inactive"}
{"smiles": "COc1cccc(NC(=O)c2cccc(OC)c2OC)c1", "Potency": "inconclusive: 7.08 µM [activator, partial curve, poor fit]"}
{"smiles": "O=C(NC(=S)Nc1ccc(N2CCCCC2)cc1)c1ccco1", "Potency": "inconclusive: 1.41 µM [activator, full curve, poor fit]"}
{"smiles": "COc1ccc(-c2csc(N(C)C(=O)c3cccs3)n2)cc1", "Potency": "active: 10 µM"}
